Data taken from article PMC4336329 (PLoS ONE, 2015).
Screen size: about 310,000 compounds; about 2,200 (0.71%) showed an effect of 50% or more. Effects have a minus sign here. This is one part of the list.

Biological target: human ether-à-go-go-related gene (hERG) potassium channel (human, UniProt Q12809)
Assay: primary screen, population patch clamp on CHO cells stably expressing hERG

Sequence of human ether-à-go-go-related gene (hERG) potassium channel (Q12809 whole entry, looked up): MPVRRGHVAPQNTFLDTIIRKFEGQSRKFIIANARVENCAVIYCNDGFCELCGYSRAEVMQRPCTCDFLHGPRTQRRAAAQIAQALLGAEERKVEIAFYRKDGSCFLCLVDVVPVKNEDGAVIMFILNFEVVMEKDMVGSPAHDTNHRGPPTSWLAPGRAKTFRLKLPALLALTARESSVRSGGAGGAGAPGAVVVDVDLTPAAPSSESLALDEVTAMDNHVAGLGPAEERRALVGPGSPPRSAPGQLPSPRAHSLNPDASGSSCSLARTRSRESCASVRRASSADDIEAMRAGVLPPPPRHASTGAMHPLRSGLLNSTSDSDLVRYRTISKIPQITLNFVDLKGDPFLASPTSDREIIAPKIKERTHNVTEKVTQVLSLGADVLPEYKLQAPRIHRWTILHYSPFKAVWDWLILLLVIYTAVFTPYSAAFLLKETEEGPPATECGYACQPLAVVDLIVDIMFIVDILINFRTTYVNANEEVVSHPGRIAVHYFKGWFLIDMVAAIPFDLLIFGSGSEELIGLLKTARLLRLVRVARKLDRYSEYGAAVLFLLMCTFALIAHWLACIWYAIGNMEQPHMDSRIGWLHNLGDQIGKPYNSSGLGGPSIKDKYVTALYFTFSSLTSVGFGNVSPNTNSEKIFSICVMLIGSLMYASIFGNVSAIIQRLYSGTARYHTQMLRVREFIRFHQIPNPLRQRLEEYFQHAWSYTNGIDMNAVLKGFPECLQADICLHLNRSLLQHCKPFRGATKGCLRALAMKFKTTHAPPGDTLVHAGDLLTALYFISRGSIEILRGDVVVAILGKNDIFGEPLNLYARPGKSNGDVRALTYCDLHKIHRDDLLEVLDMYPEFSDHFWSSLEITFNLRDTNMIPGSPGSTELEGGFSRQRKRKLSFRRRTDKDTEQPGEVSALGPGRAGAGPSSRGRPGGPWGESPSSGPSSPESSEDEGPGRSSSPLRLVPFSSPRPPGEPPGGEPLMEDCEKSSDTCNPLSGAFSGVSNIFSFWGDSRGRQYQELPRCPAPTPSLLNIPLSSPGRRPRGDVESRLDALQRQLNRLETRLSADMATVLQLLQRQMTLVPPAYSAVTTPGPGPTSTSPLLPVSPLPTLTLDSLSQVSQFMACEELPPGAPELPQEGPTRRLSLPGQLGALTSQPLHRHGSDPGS

SMILES	hERG current change (%, negative = inhibition) at 1uM [%]
CC(C)N(C(=O)CSc1nnc(-c2cc3ccccc3cc2O)n1Cc1ccco1)C(C)C	-17.3
O=C(COC(=O)c1n[nH]c2ccccc12)Nc1ccc(Cl)cc1[N+](=O)[O-]	15.9
CC(C)(C)C(=O)Nc1nc2cc3c(cc2s1)OCO3	13.5
N#C/C(=C/c1ccc(OCc2ccc(C(=O)O)cc2)cc1)C(=O)Nc1ccccc1	12.4
O=C(NC1CCCCC1)C1CCN(C(=O)NCc2ccccc2)CC1	3.7
Cc1cccc(N2CCN(C(=O)CCS(=O)(=O)c3ccc4c(c3)NC(=O)CO4)CC2)c1C	12.5
COc1ccc(C(=O)NCc2nnc(SCC(=O)Nc3cc(OC)ccc3OC)o2)cc1	1.8
CCN(CC)CC.COc1ccccc1-n1c(=S)[nH]c2c(sc(=S)n2-c2ccccc2)c1=O	-1.99
COc1ccc(C(=O)N(CCCO)C(C)C(=O)NC2CCCCC2)cc1OC (stereo not shown)	4.45
Cc1ccc2c(c1)C(=O)CCCCC(=O)N2	13.8
Cc1nc(N2CCN(c3ccccc3)CC2)[nH]c(=O)c1Cc1cccc2ccccc12	13
CN(C)c1nc(OCCOC(=O)Nc2ccc(Cl)cc2Cl)nc(N(C)C)n1	-1.9
CC1(C)Cc2nc3sc(C(=O)NCCCO)c(N)c3cc2CO1	10.2
Cc1nn(-c2ccccc2)c(NC(=O)C(C)C)c(-c2ccccc2)c1=O	12.8
COc1ccc(CCn2c(N)c(C(=O)NCc3ccco3)c3nc4ccccc4nc32)cc1OC	16.3
CC(C(=O)NC1CCCCC1)N(Cc1ccc(F)cc1)C(=O)c1snc(C(N)=O)c1N (stereo not shown)	9.81
COc1ccc(NC(=S)Nc2ccc(S(N)(=O)=O)cc2)c(OC)c1	10.3
O=C(/C=C/c1ccc(S(=O)(=O)NCc2ccco2)cc1)NCc1cccc(Cl)c1	8.28
N/N=C1\CCCc2nonc21	7.12
Cc1cc(C)nc(NC(=O)c2cc(-c3ccc4c(c3)OCO4)nc3ccccc23)c1	9.32
Cc1cnc(=O)[nH]c1SCc1cccc(C(F)(F)F)c1	13.6
CN(C)CCC(c1ccccc1)c1ccccn1.O=C(O)/C=C/C(=O)O (stereo not shown)	11.7

SMILES	hERG current change (%, negative = inhibition) at 1uM [%]
Clc1cccc(CN2CCN(Cc3nc(CCc4ccccc4)no3)CC2)c1	2.03
Cc1ccc(OCC(=O)Nc2sc3c(c2C#N)CC(C)(C)NC3(C)C)cc1	0.683
O=C(Nc1ccc(Cl)cc1)C1=Cc2ccccc2OC1	1.81
CC(C)C(NC(=O)c1ccccc1F)C(=O)NCc1ccccc1 (stereo not shown)	3.33
CCOc1ccc(S(=O)(=O)N2CCN(c3ccccc3F)CC2)c2cccnc12	4.02
Cc1ccn2c(CNCCCn3cccn3)c(C(=O)N3CCCCCC3)nc2c1	5.76
CCOc1ccc(S(=O)(=O)NCc2cccs2)cc1	-4.12
Cc1nc(N)sc1-c1csc(Nc2ccc(S(N)(=O)=O)cc2)n1	11.5
O=C1C(NS(=O)(=O)c2ccccc2)=C(N2CCN(c3ccc(F)cc3)CC2)C(=O)c2ccccc21	12.1
CC(C)(C)C1CCC(C(=O)OCC(=O)c2ccc[nH]2)CC1 (stereo not shown)	10.2
Cn1c(=O)c2c(nc(SCC(=O)N3CCOCC3)n2C)n(C)c1=O	16.1
CCOC(=O)C1C(=O)NC(SCC(=O)Nc2nccs2)=C(C#N)C1c1ccccc1OCC (stereo not shown)	16.8
CN(C)C=O.Cn1nnnc1SCC(=O)NNC(=O)c1ccc(F)cc1	5.78
CC(C)C1Oc2ccccc2N(CC(=O)NCCCN2C(C)CCCC2C)C1=O (stereo not shown)	0.219
COc1ccc(NC(=O)N2CCCC2C(=O)Nc2ccccc2)cc1 (stereo not shown)	13.9
O=C(Cc1ccc(Cl)cc1Cl)Nc1ccncc1	1.24
O=C(NCC1CCCO1)c1ccc(-c2cccc(C(F)(F)F)c2)o1 (stereo not shown)	5.2
CCCn1c(SCC(=O)Nc2ccc(NC(=O)CC)cc2)nc2c1c(=O)n(C)c(=O)n2C	15.8
O=C1c2ccccc2C(=O)N1Cc1ccccn1	13.2
CCC(NC(=O)Cc1c(C)c2ccc(OC)c(C)c2oc1=O)C(=O)NC(Cc1ccc(Cl)cc1)C(=O)O (stereo not shown)	0.501
Cc1cccc(C(=O)NC(=S)Nc2ccc(N3CCOCC3)cc2)c1	12.1
COC(=O)[C@@]1(Cc2ccc(F)cc2)[C@H]2c3cc(C(=O)N(C)C)n(Cc4nc5ccccc5[nH]4)c3C[C@H]2CN1C(=O)c1ccccc1	15.7

SMILES	hERG current change (%, negative = inhibition) at 1uM [%]
Cc1ccc2c(cnn2C(=O)CCC(=O)NC2CCCC2)c1	6.38
Cc1cccc(N2CC(C(=O)Nc3nnc(SCC(=O)Nc4nccs4)s3)CC2=O)c1 (stereo not shown)	0.566
Cc1cc(-c2nnc(SCC(=O)Nc3ccccc3Cl)n2C)no1	6.56
O=C(Nc1cccc(Cl)c1)Nc1ccc2c(c1)OCO2	9.77
CC1CCCC(NC(=O)CNC(=S)N2CC3CC(C2)c2cccc(=O)n2C3)C1C (stereo not shown)	23.5
CC(C)(C)c1ccc(C(=O)NC(=S)Nc2sc3c(c2C#N)CCC3)cc1	7.77
Cc1cc(Nc2ncc(Cl)cc2Cl)n(-c2ccccc2C)n1	-7.76
CN(C)C(CN=C1NS(=O)(=O)c2ccccc21)c1ccco1 (stereo not shown)	6.56
N#Cc1c(N2CCCC2)nsc1-c1ccccc1	16
O=C1C(=C(c2ccccc2)c2ccccc2)Nc2ccccc21	11
Cc1cc(C)n2cc(-c3ccc(Cl)cc3)c(C(=O)O)c2n1	-13.7
c1ccc(-c2noc(CC3CCCCC3)n2)nc1	5.51
CC1Cc2ccccc2N1CC(=O)Nc1ccc(S(N)(=O)=O)cc1 (stereo not shown)	9.52
Cc1cc(C)n(C(=O)Cn2nc(C(F)F)cc2C)n1	19.9
O=C1CC(=O)Nc2cc(S(=O)(=O)Nc3ccc(F)cc3Cl)ccc2N1	-1.42
CCCc1cc(C(=O)NNC(=S)NCC2CCCO2)cs1 (stereo not shown)	7.68
C=CCn1c(SCC(=O)NC2CCCC2)nnc1-c1ccccn1	11.6
Cc1ccc(C(=O)Nc2ccccc2C(=O)NC(C(=O)O)C(C)C)cc1 (stereo not shown)	1.83
O=C(O)c1cnn(-c2nc(-c3ccc(F)cc3)cs2)c1C(F)(F)F	3.08
Cc1cccc(CSCc2ccc(C(=O)NCC3CCCO3)o2)c1 (stereo not shown)	1.84
CC(NC(=O)c1ccccc1SCC(=O)N1CCCC1)c1ccc(F)cc1 (stereo not shown)	13
Clc1ccccc1COc1ccccc1-c1nnco1	7.92

SMILES	hERG current change (%, negative = inhibition) at 1uM [%]
COc1ccc(CC(=O)N/N=C(\C)CC(=O)Nc2ccc3c(c2)OCCO3)cc1OC	-1.37
Cc1ccccc1-c1nc2cc(Cl)ccc2c(=O)o1	12.1
Cn1cccc1/C=N/NC(=O)CSc1nc2ccccc2[nH]1	12.4
CCOc1ccccc1NC(=S)N1CCCCCC1	12.3
Cc1cccc2c3c([nH]c12)CCNC3.Cl	15.9
Cc1ccc(OCC(=O)Nc2c[nH]c(=O)[nH]c2=O)cc1C	19.9
COc1ccccc1-n1cnnc1SCC(=O)N1CCOCC1	6.27
O=C1CN2CCC1C/C2=C\c1ccnc2c(Cl)cccc12 (stereo not shown)	3.27
Nc1cc(=O)[nH]c(SCC(=O)Nc2cc(S(=O)(=O)N3CCCCC3)ccc2Cl)n1	17.1
CC(=O)NCCC1CCCCN1Cc1nc(Cc2cccc(C(F)(F)F)c2)no1 (stereo not shown)	26
COc1cc(NC(=O)CSc2nnnn2Cc2ccc3c(c2)OCO3)cc(OC)c1	7.26
O=C(Nc1ccccc1C(=O)N/N=C/c1ccco1)c1ccc(F)cc1	-8.11
O=C(COc1cccc2ccccc12)N/N=C/c1ccncc1	0.844
COc1ccccc1N1CCN(C2CCCN(C(=O)Cn3cccn3)C2)CC1 (stereo not shown)	-1.51
CC(CN1C(C)CCCC1C)OC(=O)c1cccc(Br)c1.Cl (stereo not shown)	5.84
CCOC(=O)c1c(NC(=O)CSc2nnc(-c3ccco3)o2)sc(C(C)=O)c1C	3.75
COc1cc(C(=O)NCc2nnc(SCC(=O)c3ccccc3)o2)cc(OC)c1OC	7.69
COCCNC(=O)c1ccc(NS(=O)(=O)c2cc(C)ccc2C)cc1	0.838
CC(C)CN1C=C2C(=O)C(C)(OC(=O)C3CCCC3)C(=O)C=C2C=C1c1ccsc1 (stereo not shown)	16.3
Cc1nc(SCC(=O)NC(=O)NCCC(C)C)c2c(-c3cccs3)csc2n1	19.7
O=C(NCC(=O)N1CCN(S(=O)(=O)c2cccc(F)c2)CC1)c1ccc(Br)o1	-6.98
Cc1ccc(CCN2CC(C(=O)NCCCN3CCCCC3)CC2=O)cc1 (stereo not shown)	4.02
